{"source": "PubChem BioAssay AID686978", "about": "(National Center for Advancing Translational Sciences (NCATS), 2013)", "note": "Hit rate of the full screen: of about 420,000 compounds, about 64,000 (15%) were called active. Inconclusive results, whose numbers are uncertain, are shown with a selection of clear calls. Calls follow the shape of the dose curve; as a rule, active = well fitted inhibition curve with a large enough effect; inconclusive = small, poorly fitted or top-dose-only effect; inactive = flat fitted curve, though single readings scatter. No potency is given beside an inconclusive call; the fits are too rough. % is scaled to controls: 0 for no effect and ±100 for the full control effect; potency is read from the fitted curve at half-maximal effect; tags tell the direction and shape of the fitted curve.", "data": [{"experiment": "qHTS for Inhibitors of human tyrosyl-DNA phosphodiesterase 1 (TDP1): qHTS in cells in absence of CPT; also: nearly all actives have a fitted effect of over 55% in size", "details": "DT40 Tdp1-/- hTDP1 cells, no CPT, ATP luminescence, 48 h; activity change, negative = growth inhibition: at 46.2 µM (top of the series) unless noted", "procedure,_shortened": "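DT40 Tdp1-/-;hTDP1 cells, no CPT (DMSO vehicle only), 400 cells/well; compounds pin-transferred; ≥48 hr, 37 °C; CellTiter-Glo 30 min RT dark, luminescence read.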", "values": [{"smiles": "O=C(Nc1nc2ccccc2[nH]1)c1ccc(S(=O)(=O)N2CCOCC2)cc1", "Potency": "inconclusive [inhibitor, single point]"}, {"smiles": "Cc1cc2c(n1-c1ccc(C(=O)NCc3ccc(OC(C)C)cc3)cc1)CCCC2", "Potency": "active: 16.4 µM"}, {"smiles": "C=CCN1CCc2cc(O)c(O)cc2[C@H](c2ccccc2)C1", "Potency": "active: 26.6 µM"}, {"smiles": "COc1cc(-c2oc3ccc(C)cc3c(=O)c2O)cc(OC)c1OC", "Potency": "inconclusive [inhibitor, full curve, poor fit]"}, {"smiles": "Cc1ccc(NC(=S)NC2CCN(Cc3ccccc3)CC2)c(C)c1", "Potency": "inconclusive [inhibitor, single point]"}, {"smiles": "COc1cccc(C(NC(C)=O)c2nc(-c3cnc4ccccc4c3)cs2)c1", "note": "(stereo not drawn)", "activity change, negative = growth inhibition": "inconclusive: -30.3% [inhibitor]"}, {"smiles": "CCNC(=O)C1(C)CCN(C(=O)c2ccc(OC)cc2OC)C1", "note": "(stereo not drawn)", "activity change, negative = growth inhibition": "inactive: -3.8%"}, {"smiles": "Cc1cc(-c2ccc(N3CCOCC3)cc2)nc2ccccc12", "Potency": "active: 23.1 µM"}, {"smiles": "CCOC(=O)C1(CCCc2ccccc2)CCN(C(=O)CCn2cncn2)CC1", "Potency": "inconclusive [inhibitor, single point]"}, {"smiles": "CCOc1ccc(-n2c(SCC(N)=O)nc3c(c2=O)SCC3)cc1", "activity change, negative = growth inhibition": "inactive: -7.14%"}, {"smiles": "CCN(CC)S(=O)(=O)c1cc(NC(=O)c2cc([N+](=O)[O-])ccc2N2CCOCC2)ccc1C", "Potency": "active: 16.4 µM"}, {"smiles": "COc1ccc(-c2noc(CCC(=O)Nc3cc(OC)ccc3OC)n2)cc1", "Potency": "active: 20.6 µM"}, {"smiles": "CN(CCCC1CCCC1)C(=O)c1cc(COc2ccc(F)cc2F)on1", "Potency": "inconclusive [inhibitor, single point]"}, {"smiles": "Cc1ccc(S(=O)(=O)N2C[C@]3(O)C[C@@H]4C(=O)N(c5ccccc5)C(=O)[C@@H]4C[C@]3(OC(=O)Nc3cccs3)C2)cc1", "Potency": "inconclusive [inhibitor, partial curve]"}, {"smiles": "CN1/C(=C\\C(=O)c2cccnc2Cl)C(C)(C)c2ccccc21", "Potency": "active: 16.4 µM"}, {"smiles": "Cc1ccc(S(=O)(=O)Nc2c(C)nn(C)c2C)cc1C", "Potency": "active: 13 µM"}, {"smiles": "CC(CCN1C(Nc2ccccc2)=NC[C@@H]1C)c1ccccc1", "note": "(stereo partly drawn)", "Potency": "active: 11.6 µM"}, {"smiles": "COc1ccc2[nH]c(CN3CCC(n4nccc4NC(=O)C4CC4)CC3)c(C)c2c1", "activity change, negative = growth inhibition": "inactive: -15.2%"}, {"smiles": "Cc1ccc(C(=S)N2CCN(Cc3ccccc3)CC2)cc1", "activity change, negative = growth inhibition": "inactive: -11.6%"}, {"smiles": "Cc1cccc(Cc2c(C)nc3nc(SCc4ccccc4F)nn3c2C)c1", "Potency": "active: 9.2 µM"}, {"smiles": "CCOC(=O)c1ccc(NC(=O)CN2CCc3ccccc3C2)cc1", "activity change, negative = growth inhibition": "inconclusive: -33.1% [inhibitor]"}, {"smiles": "Cc1ccc(C(C)C)c(OCC(=O)N/N=C/c2cccn2C)c1", "Potency": "active: 14.6 µM"}, {"smiles": "COC(=O)Oc1ccc(/C=N/NS(=O)(=O)c2ccccc2)cc1OC", "Potency": "inconclusive [inhibitor, single point]"}, {"smiles": "CC(C)CCOc1ccc(/C=N/N2C(=O)CSC2=S)cc1", "Potency": "inconclusive [inhibitor, single point]"}, {"smiles": "N#Cc1cc2c(nc1SCC(N)=O)CCCCC2", "Potency": "inconclusive [inhibitor, single point]"}, {"smiles": "COC(=O)c1ccc(-c2nc(-c3ccc(OC)c(OC)c3)no2)cc1", "Potency": "inconclusive [inhibitor, single point]"}, {"smiles": "CCc1ccc(C(=O)NC2=NC(c3cc(OC)ccc3OC)CC(=O)N2)cc1", "note": "(stereo not drawn)", "activity change, negative = growth inhibition": "inactive: -25.3%"}, {"smiles": "COc1ccc(S(=O)(=O)N2CCc3ccccc32)cc1C(=O)Nc1cc(S(C)(=O)=O)ccc1Cl", "Potency": "active: 4.61 µM"}, {"smiles": "O=C1CN(C(=O)COC(=O)CCC(=O)c2ccc(Cl)cc2)c2ccccc2N1", "activity change, negative = growth inhibition": "inactive: -9.24%"}, {"smiles": "CCN(CC(=O)Nc1c(F)cccc1F)C(=O)Cc1ccc(OC)c(S(=O)(=O)N2CCOCC2)c1", "activity change, negative = growth inhibition": "inactive: -13.7%"}, {"smiles": "CCCN(CCC)C(=O)C1CCCN(S(=O)(=O)c2cc(Br)cc3c2N(C(=O)CC)CC3)C1", "note": "(stereo not drawn)", "Potency": "active: 20.6 µM"}, {"smiles": "CC(=O)NCCNc1nc2cc(-c3ccc(Cl)cc3C)sc2c(=O)n1C", "Potency": "inconclusive [inhibitor, single point]"}, {"smiles": "COc1ccc(-c2cc(C(F)(F)F)n3nc(C(=O)Nc4sc5c(c4C(=O)OC(C)C)CCC(C)C5)cc3n2)cc1", "note": "(stereo not drawn)", "activity change, negative = growth inhibition": "inactive: 1.49%"}, {"smiles": "COc1ccc(CC(C(=O)Nc2cc(C)ccc2C)/C(N)=N/O)cc1", "note": "(stereo not drawn)", "activity change, negative = growth inhibition": "inactive: -4.34%"}, {"smiles": "NC(=O)c1ccccc1NC(=O)/C=C/c1c(Cl)cccc1Cl", "Potency": "active: 18.4 µM"}, {"smiles": "COc1ccc(CNC(=O)/C=C/c2cc([N+](=O)[O-])ccc2OC(F)F)cc1", "activity change, negative = growth inhibition": "inactive: -20.7%"}, {"smiles": "CCn1c(N2CCN(C(=O)C34CC5CC(CC(C5)C3)C4)CC2)nc2ccccc21", "Potency": "active: 25.9 µM"}, {"smiles": "O=C(Nc1ccc(-c2nc3cc(NC(=O)c4ccc(Cl)cc4)ccc3o2)cc1)c1ccc(Cl)cc1", "Potency": "active: 4.11 µM"}, {"smiles": "Cc1cc(C)c(S(=O)(=O)N2CCCCC2CCNC(=O)C(=O)NCc2ccco2)c(C)c1", "note": "(stereo not drawn)", "Potency": "active: 16.4 µM"}, {"smiles": "COc1cccc2[nH]c3c(N4CCC(C(N)=O)CC4)ncnc3c12", "activity change, negative = growth inhibition": "inactive: -9.91%"}, {"smiles": "Oc1ccc[n+](CC(O)c2ccccc2)c1", "note": "(stereo not drawn)", "activity change, negative = growth inhibition": "inactive: 2.08%"}, {"smiles": "COC(=O)C1=C(C)NC(C)=C(C(=O)OCC2CCCO2)C1c1cccc(Cl)c1", "note": "(stereo not drawn)", "Potency": "inconclusive [inhibitor, single point]"}, {"smiles": "Cc1ccc(NC(=O)CSCC(=O)N2CCN(Cc3ccc4c(c3)OCO4)CC2)cc1", "activity change, negative = growth inhibition": "inactive: -1.03%"}, {"smiles": "Cc1cc(C)cc(NC(=O)CCc2c(C)nc3c(c2C)c(=O)n(C)c(=O)n3C)c1", "Potency": "active: 16.4 µM"}, {"smiles": "CCc1ccc(-n2nc(CO)c(C(=O)NCc3cccnc3)n2)cc1", "Potency": "inconclusive [inhibitor, single point]"}, {"smiles": "CCOC(=O)c1[nH]c2c(c1-c1ccc(OC)cc1)C(=O)CC(c1ccc(OC)c(OC)c1)C2", "note": "(stereo not drawn)", "Potency": "inconclusive [inhibitor, partial curve, poor fit]"}, {"smiles": "CCN(CC)CCn1c(NC(=O)c2ccc(C)cc2)nc2ccccc21", "Potency": "inconclusive [inhibitor, single point]"}, {"smiles": "O=C(c1ccc2n[nH]nc2c1)N1CCN(c2ccc(C(F)(F)F)cn2)CC1", "Potency": "inconclusive [inhibitor, partial curve]"}, {"smiles": "CCN(C(=O)COC(=O)c1cc2c(s1)CCC(C)C2)c1c(N)n(Cc2ccccc2)c(=O)[nH]c1=O", "note": "(stereo not drawn)", "Potency": "inconclusive [inhibitor, single point]"}, {"smiles": "CCc1ccccc1OCC(=O)N(CC)CC(=O)NCc1ccc(F)cc1", "Potency": "inconclusive [inhibitor, single point]"}, {"smiles": "CCc1nc2ccc(C(=O)NCc3ccc(OC)cc3)cn2c1N(CCC(C)C)CCN(C)C", "Potency": "active: 16.4 µM"}, {"smiles": "Cc1ccc(-c2onc(C)c2C)cc1S(=O)(=O)Nc1cccc(Cl)c1C", "Potency": "inconclusive [inhibitor, single point]"}, {"smiles": "COc1ccccc1NC(=O)COC(=O)c1c(NC(C)=O)sc(C)c1C", "Potency": "active: 16.4 µM"}, {"smiles": "NNC(=O)C(=O)Nc1ccc(Cl)c(Cl)c1", "Potency": "inconclusive [inhibitor, full curve, poor fit]"}, {"smiles": "Fc1cccc2sc(Nc3nc4cc5c(cc4s3)OCO5)nc12", "Potency": "inconclusive [inhibitor, single point]"}, {"smiles": "CCOC(=O)C1=CN(Cc2ccccc2)CCC1=O", "activity change, negative = growth inhibition": "inactive: -9.46%"}, {"smiles": "COc1ccc(/C=C2\\CCC/C(=C\\C=N\\N(C)C)C2=O)cc1", "Potency": "inconclusive [inhibitor, single point]"}, {"smiles": "OC(c1ccccc1)(c1nc(-c2cccc3cccnc23)cs1)C(F)(F)F", "note": "(stereo not drawn)", "Potency": "inconclusive [inhibitor, single point]"}, {"smiles": "CSc1nc2ccc(NS(=O)(=O)c3c(Cl)cccc3Cl)cc2s1", "activity change, negative = growth inhibition": "inactive: 2.01%"}, {"smiles": "COc1cccc(-c2cc3c(c(OC)c2)OCCN(S(=O)(=O)c2ccccc2OC(F)(F)F)C3)n1", "activity change, negative = growth inhibition": "inactive: -6.15%"}, {"smiles": "Cc1ccc(-c2nc3ccccn3c2Nc2ccccc2)o1", "Potency": "inconclusive [inhibitor, partial curve]"}, {"smiles": "COc1ccc(OC)c(CNC(=O)C2CCC(=O)N(CCCN3CCCC3=O)C2)c1", "note": "(stereo not drawn)", "activity change, negative = growth inhibition": "inactive: -0.747%"}, {"smiles": "CCc1nc2ccc(C(=O)N(C)CC(=O)Nc3cccc(F)c3)cc2nc1CC", "Potency": "inconclusive [inhibitor, single point]"}, {"smiles": "O=S(=O)(c1ccc(Br)cc1)c1nnn2c1nc(NCCc1ccccc1)c1sccc12", "Potency": "inconclusive [inhibitor, single point]"}, {"smiles": "CCOc1ccc(CCN2C(=O)C(=O)N([C@@H](CC(C)C)CN3CCC[C@@H]3CN3C(=O)C(=O)NC[C@@H]3Cc3ccccc3)C[C@@H]2CC(C)C)cc1", "Potency": "active: 23.1 µM"}, {"smiles": "O=C(NC1CCCCC1)C(c1ccccc1F)N(C(=O)c1csnn1)C1CCCC1", "note": "(stereo not drawn)", "Potency": "inconclusive [inhibitor, single point]"}, {"smiles": "Cc1cn2c(=O)c(S(=O)(=O)Nc3ccc(N4CCOCC4)cc3)c(C)nc2s1", "Potency": "inconclusive [inhibitor, single point]"}, {"smiles": "COc1cc(NC(C)CCCNC(C)C)c2ncccc2c1OC", "note": "(stereo not drawn)", "Potency": "inconclusive [inhibitor, single point]"}, {"smiles": "Cc1nc(OCC(C)C)c2sc3nc4c(cc3c2n1)COC(C)(C)C4", "Potency": "active: 20.6 µM"}, {"smiles": "Cc1cccc(N(Cc2cc3ccc(C)cc3[nH]c2=O)S(=O)(=O)c2ccccc2)c1", "Potency": "inconclusive [inhibitor, single point]"}, {"smiles": "COc1ccc(CCNC(=O)COC(=O)Cc2c[nH]c3ccccc23)cc1OC", "activity change, negative = growth inhibition": "inactive: -28.3%"}, {"smiles": "Cc1cccc2nc(C(=O)Nc3cc(Cl)ccc3-n3cncn3)cn12", "activity change, negative = growth inhibition": "inactive: -20.6%"}, {"smiles": "O=C(COC(=O)c1cccc(S(=O)(=O)NCc2ccccc2)c1)c1ccc2c(c1)OCCO2", "Potency": "inconclusive [inhibitor, single point]"}]}]}
